This list was built around the results that the source calls inconclusive (neither active nor inactive); the mix of calls is not that of the screen. For part of these data: Where the call is inconclusive, the potency comes from a doubtful curve fit. The source made the active and inactive calls. Unless noted, calls come from the whole dose curve; as a rule, active = well fitted curve in the direction sought with a large enough effect in the repeat runs; inconclusive = weak or mixed curves; inactive = no such curve, though single readings can be large; an effect the other way counts as inactive or inconclusive.
Legend:
[1] = target: Peroxisome proliferator-activated receptor gamma (Homo sapiens) (UniProt P37231); experiment: qHTS assay to identify small molecule antagonists of the peroxisome proliferator-activated receptor gamma (PPARg) signaling pathway (AID 743191; calls by dose curve; note: nearly all actives have a fitted effect of over 30% in size; for ratio activity, negative = inhibition: % is set by controls: 0 for no effect and ±100 for the full control effect); details: HEK293H PPARg-UAS-bla, beta-lactamase ratio, antagonist, 17 h; ratio activity, negative = inhibition: at 62.6 µM (top of the series) unless noted
Sequence of UniProt P37231 (P37231 whole entry, looked up): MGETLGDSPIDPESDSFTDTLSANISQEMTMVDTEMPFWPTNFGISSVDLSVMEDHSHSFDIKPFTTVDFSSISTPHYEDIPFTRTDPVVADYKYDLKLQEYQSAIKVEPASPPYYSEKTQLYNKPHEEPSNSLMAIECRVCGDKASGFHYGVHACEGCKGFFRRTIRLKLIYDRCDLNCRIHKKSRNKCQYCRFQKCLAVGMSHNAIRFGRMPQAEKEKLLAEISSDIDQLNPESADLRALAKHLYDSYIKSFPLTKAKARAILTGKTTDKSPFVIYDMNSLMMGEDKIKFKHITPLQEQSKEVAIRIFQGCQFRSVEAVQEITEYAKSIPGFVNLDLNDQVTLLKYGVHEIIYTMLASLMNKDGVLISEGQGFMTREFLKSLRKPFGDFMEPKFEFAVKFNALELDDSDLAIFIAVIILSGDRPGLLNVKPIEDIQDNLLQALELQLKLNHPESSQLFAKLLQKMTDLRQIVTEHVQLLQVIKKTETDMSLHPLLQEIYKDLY
Method in brief: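 GeneBLAzer PPARg UAS-bla HEK293H cells carrying a UAS-driven beta-lactamase reporter were plated at 3000 cells/well, preincubated 5 h at 37C, then given compound for 17 h at 37C; LiveBLAzer B/G FRET substrate was read after 1 h at room temperature.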

[2] = qHTS assay to identify small molecule antagonists of the peroxisome proliferator-activated receptor gamma (PPARg) signaling pathway - cell viability counter screen (AID 743194); details: PPARg-bla HEK293H viability, CellTiter-Glo luminescence, 17 h; Potency: co-treated with 50 nM rosiglitazone unless noted; activity change, negative = cytotoxicity: at 62.6 µM (top of the series), co-treated with 50 nM rosiglitazone unless noted; note: nearly all actives have a fitted effect of over 55% in size
Method in brief: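 PPARg-UAS-bla HEK293H cells were plated, rested 5 h at 37 C, then treated with compounds plus rosiglitazone (50 nM final) for 17 h at 37 C; viability was then read by CellTiter-Glo luminescence after 30 min at room temperature.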

[3] = qHTS assay for small molecule agonists of the antioxidant response element (ARE) signaling pathway (AID 743202; active = well fitted activation curve with a large enough effect in the signal ratio in the repeat runs, not every such curve was filed as active; inconclusive = weak or mixed curves, or effect the other way; inactive = no such curve, though single readings can be large or run the other way; the % refers to the signal ratio); details: HepG2 ARE-bla reporter, beta-lactamase FRET, 16 h; activation: at 73.3 µM (top of the series) unless noted
Method in brief: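 Read-out: LiveBLAzer B/G FRET substrate fluorescence after 2 h at room temperature, following 16 h compound treatment at 37 C of HepG2 cells carrying an ARE-driven beta-lactamase reporter.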

[4] = qHTS assay for small molecule activators of the heat shock response signaling pathway - cell viability counter screen (AID 743209); details: HSE-bla HeLa viability, CellTiter-Glo luminescence, 5 h; activity change, negative = cytotoxicity: at 62.6 µM (top of the series) unless noted; note: nearly all actives have a fitted effect of over 50% in size
Method in brief: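 Quantitative HTS format, Tox21 10K library. HeLa cells carrying an HSE-driven beta-lactamase reporter were treated 5 h at 37 C, then assessed for viability by CellTiter-Glo luminescence.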

[5] = qHTS assay to identify small molecule agonists of the peroxisome proliferator-activated receptor delta (PPARd) signaling pathway - cell viability counter screen (AID 743211); details: PPARd-bla HEK293H viability, CellTiter-Glo luminescence, 17 h; activity change, negative = cytotoxicity: at 62.6 µM (top of the series) unless noted; note: nearly all actives have a fitted effect of over 55% in size
Method in brief: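 Counter screen for cytotoxicity run in parallel with the PPARd reporter screen. Beta-lactamase reporter HEK293H cells exposed to compounds 17 h; ATP-based CellTiter-Glo luminescence quantified viability.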

[6] = qHTS assay to identify small molecule antagonists of the peroxisome proliferator-activated receptor delta (PPARd) signaling pathway - cell viability counter screen (AID 743213); details: PPARd-bla HEK293H viability, CellTiter-Glo luminescence, 17 h; viability change, negative = cytotoxic: at 62 µM (top of the series) unless noted; note: nearly all actives have a fitted effect of over 50% in size; for viability change, negative = cytotoxic: % is set by controls: 0 for no effect and ±100 for the full control effect
Method in brief: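 Luminescence from CellTiter-Glo, added after the bla read and incubated 30 min at room temperature, gives viability of HEK293H PPARd-bla cells exposed to compounds for 17 h at 37 C with 300 nM L165041.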

[7] = target: Peroxisome proliferator-activated receptor delta (Homo sapiens) (UniProt Q03181); experiment: qHTS assay to identify small molecule antagonists of the peroxisome proliferator-activated receptor delta (PPARd) signaling pathway (AID 743215; active = well fitted inhibition curve with a large enough effect in the signal ratio in the repeat runs, not every such curve was filed as active; inconclusive = weak or mixed curves, or effect the other way; inactive = no such curve, though single readings can be large or run the other way; the % refers to the signal ratio;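 note: cells stimulated with agonist L165041 at 300 nM final during compound exposure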; for ratio activity, negative = inhibition: % is set by controls: 0 for no effect and ±100 for the full control effect); details: HEK293H PPARd-UAS-bla, beta-lactamase FRET ratio, antagonist, 17 h; ratio activity, negative = inhibition: at 62 µM (top of the series) unless noted
Sequence of UniProt Q03181 (Q03181 whole entry, looked up): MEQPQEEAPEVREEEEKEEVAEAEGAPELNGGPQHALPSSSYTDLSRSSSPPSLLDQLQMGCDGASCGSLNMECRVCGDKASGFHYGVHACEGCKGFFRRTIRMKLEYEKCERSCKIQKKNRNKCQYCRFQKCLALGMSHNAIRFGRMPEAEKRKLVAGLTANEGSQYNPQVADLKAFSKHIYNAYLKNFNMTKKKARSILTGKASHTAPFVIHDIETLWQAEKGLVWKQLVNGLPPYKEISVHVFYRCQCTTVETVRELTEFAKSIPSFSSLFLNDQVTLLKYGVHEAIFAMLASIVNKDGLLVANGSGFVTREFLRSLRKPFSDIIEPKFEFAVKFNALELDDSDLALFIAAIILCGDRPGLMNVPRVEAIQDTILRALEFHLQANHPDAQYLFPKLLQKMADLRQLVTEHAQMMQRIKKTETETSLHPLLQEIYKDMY
Method in brief: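 Antagonist-mode beta-lactamase reporter screen: HEK293H cells with UAS-bla under PPARd control, stimulated by 300 nM L165041 (final) alongside test compound for 17 h at 37 C, then FRET fluorescence after 2 h substrate incubation.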

[8] = target: Bile acid receptor (Homo sapiens) (UniProt Q96RI1); experiment: qHTS assay to identify small molecule antagonists of the farnesoid-X-receptor (FXR) signaling pathway (AID 743217; active = well fitted inhibition curve with a large enough effect in the signal ratio in the repeat runs, not every such curve was filed as active; inconclusive = weak or mixed curves, or effect the other way; inactive = no such curve, though single readings can be large or run the other way; the % refers to the signal ratio); details: HEK293T FXR-UAS-bla, beta-lactamase ratio, CDCA-stimulated, 16 h; activity change, negative = inhibition: at 62.6 µM (top of the series) unless noted
Sequence of UniProt Q96RI1 (Q96RI1 whole entry, looked up): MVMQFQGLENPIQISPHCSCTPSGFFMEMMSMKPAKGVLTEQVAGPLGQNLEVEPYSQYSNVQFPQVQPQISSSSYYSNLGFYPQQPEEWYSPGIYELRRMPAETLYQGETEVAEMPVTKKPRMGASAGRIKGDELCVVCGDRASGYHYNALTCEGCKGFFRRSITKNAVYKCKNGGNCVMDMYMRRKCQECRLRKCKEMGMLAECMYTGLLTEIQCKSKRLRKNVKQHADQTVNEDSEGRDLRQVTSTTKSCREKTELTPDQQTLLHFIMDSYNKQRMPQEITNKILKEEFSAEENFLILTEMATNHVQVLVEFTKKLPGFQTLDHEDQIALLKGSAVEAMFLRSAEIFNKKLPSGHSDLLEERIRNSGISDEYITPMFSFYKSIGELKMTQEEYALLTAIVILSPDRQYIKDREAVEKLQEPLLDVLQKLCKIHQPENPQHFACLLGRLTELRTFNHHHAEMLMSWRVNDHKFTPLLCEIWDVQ
Method in brief: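 Beta-lactamase reporter under UAS control in HEK 293T cells; compound exposure 16 h at 37 °C in the presence of chenodeoxycholic acid (50 uM final); signal from B/G FRET substrate after 2 h at room temperature.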

[9] = qHTS assay to identify small molecule agonists of the farnesoid-X-receptor (FXR) signaling pathway - cell viability counter screen (AID 743218); details: FXR-bla HEK293T viability, CellTiter-Glo luminescence, 16 h; viability change, negative = cytotoxic: at 62.6 µM (top of the series) unless noted; note: nearly all actives have a fitted effect of over 45% in size
Method in brief: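 In GeneBLAzer FXR-UAS-bla HEK 293T cells, compounds act for 16 h at 37 C. Cell viability is then scored in the reporter wells by CellTiter-Glo, 30 min at RT, luminescence.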

[10] = qHTS assay to identify small molecule antagonists of the vitamin D receptor (VDR) signaling pathway - cell viability counter screen (AID 743225); details: VDR-bla HEK293T viability, CellTiter-Glo luminescence, 16 h; viability change, negative = cytotoxic: at 61 µM (top of the series) unless noted; note: nearly all actives have a fitted effect of over 50% in size
Method in brief: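 HEK293T VDR-bla; cpd + 1a,25-(OH)2D3 3 nM final, 16 h 37C/5% CO2; B/G FRET substrate 2 h RT; then CellTiter-Glo 30 min RT, luminescence.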

[11] = qHTS assay to identify small molecule agonists of the NFkB signaling pathway - cell viability counter screen (AID 1159515; calls by dose curve; note: nearly all actives have a fitted effect of over 55% in size)
Method in brief: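 Viability in NFkB-bla ME-180 cells was measured by CellTiter-Glo luminescence, 30 min room temperature, in wells already treated 5 hr with compounds and read for reporter FRET.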

[12] = qHTS assay to identify small molecule agonists of the endoplasmic reticulum stress response signaling pathway (AID 1159516; active = well fitted activation curve with a large enough effect in the signal ratio in the repeat runs, not every such curve was filed as active; inconclusive = weak or mixed curves, or effect the other way; the % refers to the signal ratio; for activation: % is set by controls: 0 for no effect and ±100 for the full control effect); details: ESRE-bla HeLa, ER stress beta-lactamase reporter, 5 h; activation: at 61 µM (top of the series) unless noted
Method in brief: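 ER stress element reporter (bla) in HeLa. 1,500 cells/well, overnight attachment; 5 hr compound; 2 hr RT substrate; dual-emission fluorescence.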

[13] = qHTS assay for small molecule activators of the heat shock response signaling pathway (AID 743210; active = well fitted activation curve with a large enough effect in the signal ratio in the repeat runs, with a control signal flat, not every such curve was filed as active; inconclusive = weak or mixed curves; the % refers to the signal ratio); details: HeLa HSE-bla reporter, beta-lactamase ratio, 5 h; activation: at 62.6 µM (top of the series)
Method in brief: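 HSE-bla HeLa cells (beta-lactamase reporter under heat shock response elements) were exposed to compounds for 5 h at 37 C, then loaded with LiveBLAzer B/G FRET substrate for 2.5 h at room temperature before fluorescence reading.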

[14] = target: Peroxisome proliferator-activated receptor delta (Homo sapiens) (UniProt Q03181); experiment: qHTS assay to identify small molecule agonists of the peroxisome proliferator-activated receptor delta (PPARd) signaling pathway (AID 743212; calls by dose curve); details: HEK293H PPARd-UAS-bla, beta-lactamase FRET ratio, 17 h; activation: at 62.6 µM (top of the series) unless noted
Method in brief: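 GeneBLAzer PPARd UAS-bla HEK293H cells (beta-lactamase reporter under UAS control), plated and rested 5 h at 37 C, then exposed to compounds in DMSO at 37 C; LiveBLAzer B/G FRET substrate added, 2 h room temperature, fluorescence read.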

[15] = target: Bile acid receptor (Homo sapiens) (UniProt Q96RI1); experiment: qHTS assay to identify small molecule agonists of the farnesoid-X-receptor (FXR) signaling pathway (AID 743220; active = well fitted activation curve with a large enough effect in the signal ratio in the repeat runs, not every such curve was filed as active; inconclusive = weak or mixed curves, or effect the other way; the % refers to the signal ratio); details: HEK293T FXR-UAS-bla, beta-lactamase FRET ratio, 16 h; activation: at 62.6 µM (top of the series) unless noted
Method in brief: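 Beta-lactamase reporter under UAS control in GeneBLAzer FXR HEK 293T cells (5000/well) measured with LiveBLAzer FRET substrate after 2 h at room temperature. Compound exposure lasted 16 h at 37C.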

[16] = qHTS assay to identify small molecule antagonists of the farnesoid-X-receptor (FXR) signaling pathway - cell viability counter screen (AID 743221; active = well fitted cell-killing curve with a large enough effect in the repeat runs, not every such curve was filed as active; inconclusive = weak or mixed curves, or effect the other way; inactive = no such curve, though single readings can be large or run the other way; note: nearly all actives have a fitted effect of over 50% in size); details: FXR-bla HEK293T viability, CellTiter-Glo luminescence, 16 h; activity change, negative = cytotoxicity: at 62.6 µM (top of the series) unless noted
Method in brief: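 Multiplexed counter screen: viability of FXR-bla HEK 293T cells under agonist stimulation by chenodeoxycholic acid (50 uM, final) and test compound for 16 h at 37 C, measured by CellTiter-Glo luminescence in the reporter wells.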

[17] = qHTS assay for small molecule agonists of the antioxidant response element (ARE) signaling pathway - cell viability counter screen (AID 743203; calls by dose curve; note: nearly all actives have a fitted effect of over 55% in size)
Method in brief: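 Cells (ARE-bla HepG2, 2,000/well) receive DMSO-dissolved compounds after a 5 hrs rest. Plates incubate 16 hrs at 37C/5% CO2. CellTiter-Glo luminescence is then recorded after 30 min at room temperature.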

[18] = target: Vitamin D3 receptor (Homo sapiens) (UniProt P11473); experiment: qHTS assay to identify small molecule antagonists of the vitamin D receptor (VDR) signaling pathway (AID 743223; active = well fitted inhibition curve with a large enough effect in the signal ratio in the repeat runs, not every such curve was filed as active; inconclusive = weak or mixed curves, or effect the other way; inactive = no such curve, though single readings can be large or run the other way; the % refers to the signal ratio); details: VDR-UAS-bla HEK293T, beta-lactamase FRET ratio, 16 h; activity change, negative = inhibition: at 61 µM (top of the series) unless noted
Sequence of UniProt P11473 (P11473 whole entry, looked up): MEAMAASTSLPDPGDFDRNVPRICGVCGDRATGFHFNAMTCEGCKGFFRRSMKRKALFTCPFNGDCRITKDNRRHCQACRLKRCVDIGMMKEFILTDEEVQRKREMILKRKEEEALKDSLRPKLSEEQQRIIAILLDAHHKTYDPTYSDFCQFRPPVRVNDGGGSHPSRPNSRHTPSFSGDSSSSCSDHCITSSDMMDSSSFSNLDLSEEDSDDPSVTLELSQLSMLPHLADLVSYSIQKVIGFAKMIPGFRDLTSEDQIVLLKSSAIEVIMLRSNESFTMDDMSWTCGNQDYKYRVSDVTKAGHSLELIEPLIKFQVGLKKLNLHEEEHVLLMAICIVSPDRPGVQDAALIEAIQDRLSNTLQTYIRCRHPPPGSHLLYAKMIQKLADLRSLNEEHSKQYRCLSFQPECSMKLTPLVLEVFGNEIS
Method in brief: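 Cells carrying a VDR-driven beta-lactamase reporter (VDR-bla) were co-treated with compound and 3 nM final 1alpha,25-dihydroxyvitamin D3 for 16 h at 37C; reporter activity was measured as FRET substrate fluorescence after 2 h at room temperature.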

[19] = qHTS assay to identify small molecule agonists of the vitamin D receptor (VDR) signaling pathway - cell viability counter screen (AID 743224); note: nearly all actives have a fitted effect of over 50% in size
Method in brief: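 VDR-bla cell line, quantitative HTS format; 16 h compound incubation (37C, 5% CO2); ATP-based CellTiter-Glo luminescence measured in the reporter assay wells.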
Potency is the fitted concentration of half-maximal effect; tags give direction and shape of the fitted curve or compound fluorescence and quenching.

Cc1cc(C(C)(C)c2ccc(O)c(C)c2)ccc1O
inconclusive: Potency [1] 18.6 µM | Potency [4] 58.7 µM [cytotoxic, partial curve, poor fit] | Potency [5] 52.3 µM [cytotoxic, single point] | Potency [6] 52.3 µM [cytotoxic, single point] | Potency [7] 46.6 µM [inhibitor] | Potency [8] 52.3 µM [single point] | Potency [9] 52.3 µM [cytotoxic, single point] | Potency [10] 58.7 µM [cytotoxic, single point] | Potency [11] 58.7 µM [cytotoxic] | Potency [12] 58.7 µM [cytotoxic, single point]
active: Potency [2] 37 µM | Potency [3] 9.23 µM

CCCCCCCCCCCCCC[P+](CCCCCC)(CCCCCC)CCCCCC (tested in a mixture with another compound)
active: Potency [2] 0.49 µM | Potency [4] 3.47 µM | Potency [6] 11 µM | Potency [9] 7.76 µM | Potency [16] 6.92 µM | Potency [10] 2.75 µM | Potency [11] 17.4 µM
inconclusive: Potency [1] 11 µM [cytotoxic, full curve] | Potency [3] 13.7 µM [falling, full curve] | Potency [13] 9.05 µM [cytotoxic] | Potency [14] 12.3 µM [falling, full curve] | Potency [8] 19.5 µM [cytotoxic, full curve] | Potency [15] 13.8 µM [cytotoxic, full curve] | Potency [12] 21.9 µM [cytotoxic]

CC1CN1 (stereo not given)
inconclusive: ratio activity, negative = inhibition [1] -8.34%
inactive: Potency [11] | Potency [12]

CN(C)[C@@H]1C(=O)C(C(N)=O)=C(O)[C@@]2(O)C(=O)C3=C(O)c4c(O)cccc4[C@@](C)(O)[C@H]3[C@H](O)[C@@H]12
inconclusive: Potency [1] 53.6 µM [rising, partial curve, poor fit] | Potency [2] 54.8 µM [rising, single point] | Potency [17] 10.8 µM [rising, partial curve, poor fit] | Potency [11] 0.0975 µM [cytotoxic, full curve]
54.8 µM (inconclusive) and inactive: Potency [12]
inactive: Potency [6]

COC(=O)/C=C(\C)OP(=O)(OC)OC
inconclusive: Potency [1] 5.49 µM [inhibitor, full curve] | Potency [2] 12.3 µM [cytotoxic, full curve, poor fit] | Potency [3] 61.1 µM [falling, partial curve] | Potency [13] 9.22 µM | ratio activity, negative = inhibition [7] -15.9% | Potency [8] 30.9 µM [inhibitor, partial curve, poor fit] | Potency [12] 17.4 µM [falling, full curve]
inactive: Potency [11]

O=C(CCl)C(Cl)Cl
active: Potency [7] 49.4 µM | Potency [16] 49.4 µM
inconclusive: Potency [1] 44.1 µM [partial curve] | Potency [2] 27.8 µM [cytotoxic, partial curve, poor fit] | Potency [3] 49 µM [falling, partial curve] | Potency [4] 6.98 µM [cytotoxic, full curve] | Potency [13] 14.8 µM | Potency [14] 55.5 µM [rising, single point] | Potency [6] 22.1 µM [cytotoxic, partial curve, poor fit] | Potency [8] 62.2 µM [single point] | Potency [9] 24.8 µM [cytotoxic, partial curve, poor fit] | Potency [15] 55.5 µM [fluorescent, single point] | Potency [18] 55.5 µM [single point] | Potency [19] 22.1 µM [cytotoxic, partial curve] | Potency [10] 24.8 µM [cytotoxic, partial curve] | Potency [11] 22.1 µM [cytotoxic, partial curve, poor fit] | Potency [12] 6.98 µM [rising, partial curve]
